Results: US7799809B2, “Carboxamide compounds and their use as calpain inhibitors” (Abbott GmbH & Co. KG, priority 2006, dated 2010)
Structures can show the parent of a compound that is named as a salt. For at least one compound, name, drawing or mass did not settle the structure. Some entries repeat one wording, which the source may state once for all of them.

Key:
Type in all cases: biochemical
[1] = target: T1, cathepsin S (Homo sapiens, UniProt P25774); experiment: Cathepsin S enzyme inhibition in vitro (kinetic fluorescence assay); details: recombinant human cathepsin S vs calpain I
T1 construct: purchased Calbiochem 219343; host or cells: E. coli
T1 sequence (P25774 115-331): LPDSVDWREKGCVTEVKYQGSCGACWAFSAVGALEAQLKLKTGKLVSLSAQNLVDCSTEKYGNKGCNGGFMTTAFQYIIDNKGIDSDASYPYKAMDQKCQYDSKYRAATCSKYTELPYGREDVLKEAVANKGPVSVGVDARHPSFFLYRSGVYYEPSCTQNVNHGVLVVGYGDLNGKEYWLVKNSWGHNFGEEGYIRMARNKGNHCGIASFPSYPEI
Method: (§1) The following solutions and buffers were employed: • HBS (for 40 ml): 800 μl M HEPES; 2.16 ml 100 mM KCl; 4.8 ml 1M NaCl; 3.59 ml 5% glucose; 60 μl μM MgSO4; 400 μl 100 mM Na pyruvate, 28.19 ml water; pH 7.2-7.5. • lysis buffer (for 20 ml): 400 μl M Tris pH 8.2; 2.74 ml 1M NaCl; 520 μl 0.5M EDTA; 2 ml 10% triton X-100; 0.8 ml (=1:25) CompletePlus (1 tablet/2 ml H2O); 200 μl 100 mM Pefabloc; 13.34 ml water, pH 8.2. • TBST (10×) (for 1 l): 100 mM Tris (12.1 g); 1.5M NaCl (87 g); 1% Tween 20 (10 g), adjusted to pH 8. I Enzyme Inhibition In Vitro: • Testing for blockade of the corresponding enzymic activities was carried out by means of kinetic fluorescence assays (excitation 390 nm, emission 460 nm). • Apparent Ki values were calculated from the experimentally determined IC50 values by the Cheng-Prussoff relation assuming a reversible competitive enzyme inhibition. The Km values of the substrates used under the assay conditions indicated above were: 90 μM (Z-Phe-Arg-AMC, cathepsin B), 10 μM (Z-Gly-Pro-Arg-AMC, cathepsin K), 2 μM (Z-Phe-Arg-AMC, cathepsin L), and 30 μM (Z-Val-Val-Arg-AMC, cathepsin S). • The indicated Ki values are averages of the inhibition constants calculated on the basis of 2 to 4 independent dose-effect plots.
(§2) The following assays were used: • 1. Calpain I: • 20 nM calpain-I—isolated from human erythrocytes (Calbiochem #208713), 100 μM Suc-Leu-Tyr-AMC (Bachem #1-1355) as substrate in buffer with 62 mM imidazole, 0.3 mM CaCl2, 0.10% CHAPS, 0.05% BSA, 1 mM DTT at pH 7.3 and room temperature. • 2. Cathepsin B: • 0.25 nM cathepsin B—isolated from human liver (Calbiochem #219362), 100 μM Z-Phe-Arg-AMC (Bachem #I-1160) as substrate 50 mM MES, 2 mM EDTA, 0.05% Brij 35, 2.5 mM L-cysteine, pH 6.0, room temperature. • 3. Cathepsin K: • 3 nM cathepsin K—activated from recombinant human procathepsin K from E. coli (Calbiochem #342001), 10 μM Z-Gly-Pro-Arg-AMC (Biomol #P-142) as substrate in 50 mM MES, 2 mM EDTA, 0.05% Brij 35, 2.5 mM L-cysteine, pH 6.0, room temperature. • 4. Cathepsin L: • 1 nM cathepsin L—isolated from human liver (Calbiochem #219402), 2 μM Z-Phe-Arg-AMC (Bachem #1-1160) as substrate in 50 mM MES, 2 mM EDTA, 0.05% Brij 35, 2.5 mM L-cysteine, pH 6.0, room temperature. • 5. Cathepsin S: • 0.5 nM recombinant human cathepsin S from E. coli (Calbiochem #219343), 20 μM Z-Val-Val-Arg-AMC (Bachem #1-1540) as substrate in 50 mM MES, 2 mM EDTA, 0.05% Brij 35, 2.5 mM L-cysteine, pH 6.0, room temperature. • The results of the in vitro determination are indicated in Table 1. The following abbreviations are used in Table 1: • The “Calpain activity” column, ++ stands for a calpain Ki (Ki(calpain)) of ≦40 nM and + means: 40 nM<Ki(Calpain)≦100 nM. • The “Sel. cat. B” column indicates the Ki(cathepsin B)/Ki(calpain) ratio. In this connection, ++ means a Ki(cathepsin B)/Ki(calpain) ratio of ≧30 and + means 10≦Ki(cathepsin B)/Ki(calpain)<30. • The “Sel. cat. K” column indicates the Ki(cathepsin K)/Ki(calpain) ratio. In this connection, ++ means a Ki(cathepsin K)/Ki(calpain) ratio of ≧30 and + means 10≦Ki(cathepsin K)/Ki(calpain)<30. • The “Sel. cat. L” column indicates the Ki(cathepsin L)/Ki(calpain) ratio. In this connection, ++ means a Ki(cathepsin L)/Ki(calpain) ratio of ≧50 and + means 30≦Ki(cathepsin L)/Ki(calpain)<50. • The “Sel. cat. S” column indicates the Ki(cathepsin S)/Ki(calpain) ratio. In this connection, ++ means a Ki(cathepsin S)/Ki(calpain) ratio of ≧100 and + means 50≦Ki(cathepsin S)/Ki(calpain)<100.

[2] = target: T2, cathepsin B (Homo sapiens, UniProt P07858); experiment: Cathepsin B enzyme inhibition in vitro (kinetic fluorescence assay); details: cathepsin B isolated from human liver vs calpain I
T2 construct: cathepsin B—isolated from human liver (Calbiochem #219362); purchased Calbiochem 219362; host or cells: human liver (tissue-derived)
Method: as §1
(§3) The following assays were used: • 1. […]

[3] = target: T3, cathepsin L (Homo sapiens, UniProt P07711); experiment: Cathepsin L enzyme inhibition in vitro (kinetic fluorescence assay); details: cathepsin L isolated from human liver vs calpain I
T3 construct: cathepsin L—isolated from human liver (Calbiochem #219402); purchased Calbiochem 219402; host or cells: human liver (tissue-derived)
T3 sequence (P07711 114-333): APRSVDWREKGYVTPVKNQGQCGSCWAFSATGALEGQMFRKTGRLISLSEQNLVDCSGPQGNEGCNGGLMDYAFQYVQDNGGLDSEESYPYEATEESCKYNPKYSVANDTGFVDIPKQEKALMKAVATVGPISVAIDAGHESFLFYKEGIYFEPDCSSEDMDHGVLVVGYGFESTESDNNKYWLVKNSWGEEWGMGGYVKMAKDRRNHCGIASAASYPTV
Method: as §1, §2

[4] = target: T4, cathepsin K (Homo sapiens, UniProt P43235); experiment: Cathepsin K enzyme inhibition in vitro (kinetic fluorescence assay); details: cathepsin K activated from recombinant human procathepsin K vs calpain I
T4 construct: purchased Calbiochem 342001; host or cells: E. coli
T4 sequence (P43235 115-329): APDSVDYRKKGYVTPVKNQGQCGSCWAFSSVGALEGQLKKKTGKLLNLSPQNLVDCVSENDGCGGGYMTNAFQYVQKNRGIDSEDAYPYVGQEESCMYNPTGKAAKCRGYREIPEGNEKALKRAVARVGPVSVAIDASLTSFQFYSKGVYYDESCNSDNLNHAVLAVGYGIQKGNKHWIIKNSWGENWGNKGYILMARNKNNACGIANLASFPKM
Method: as §1, §3

SMILES | Sel cat. S: Ki(cathepsin S)/Ki(calpain) ratio [1] | Sel cat. B: Ki(cathepsin B)/Ki(calpain) ratio [2] | Sel cat. L: Ki(cathepsin L)/Ki(calpain) ratio [3] | Sel cat. K: Ki(cathepsin K)/Ki(calpain) ratio [4]
NC(=O)C(=O)C(Cc1ccccc1)NC(=O)c1cccnc1-n1ccc(-c2ccc3ocnc3c2)n1 (stereo not shown) [Example 129, N-[3-Amino-2,3-dioxo-1-(phenylmethyl)propyl]-2-[3-(1,3-benzoxazol-5-yl)-1H-pyrazol-1-yl]pyridine-3-carboxamide] | ++ (++ means a Ki(cathepsin S)/Ki(calpain) ratio of ≧100) | – | – | –
O=C[C@H](Cc1ccccc1)NC(=O)c1cccnc1-n1ccc(-c2ccccc2)n1 [Example 105, N-[(1S)-1-Formyl-2-phenylethyl]-2-(3-phenyl-1H-pyrazol-1-yl)pyridine-3-carboxamide] | ++ (++ means a Ki(cathepsin S)/Ki(calpain) ratio of ≧100) | ++ (++ means a Ki(cathepsin B)/Ki(calpain) ratio of ≧30) | ++ (++ means a Ki(cathepsin L)/Ki(calpain) ratio of ≧50) | –
NC(=O)C(=O)C(Cc1ccccc1)NC(=O)c1cccnc1-n1cnc(-c2cccc(Cl)c2)c1 (stereo not shown) [Example 22, N-(3-Amino-1-benzyl-2,3-dioxopropyl)-2-[4-(3-chlorophenyl)-1H-imidazol-1-yl]nicotinamide] | ++ (++ means a Ki(cathepsin S)/Ki(calpain) ratio of ≧100) | – | + (+ means 30≦Ki(cathepsin L)/Ki(calpain)<50) | –
CCN(CC)c1ccc(-c2cn(-c3ncccc3C(=O)NC(Cc3ccccc3)C(=O)C(N)=O)cn2)cc1 (stereo not shown) [Example 16, N-(3-Amino-1-benzyl-2,3-dioxopropyl)-2-{4-[4-(diethylamino)phenyl]-1H-imidazol-1-yl}nicotinamide hydrochloride] | + (+ means 50≦Ki(cathepsin S)/Ki(calpain)<100) | – | + (+ means 30≦Ki(cathepsin L)/Ki(calpain)<50) | –
NC(=O)C(=O)C(Cc1ccccc1)NC(=O)c1cc(Cl)cnc1-n1cnc(-c2ccccc2)c1 (stereo not shown) [Example 23, N-(3-Amino-1-benzyl-2,3-dioxopropyl)-5-chloro-2-(4-phenyl-1H-imidazol-1-yl)nicotinamide hydrochloride] | – | – | + (+ means 30≦Ki(cathepsin L)/Ki(calpain)<50) | –
NC(=O)C(=O)C(Cc1ccc(OC(F)(F)F)cc1)NC(=O)c1cccnc1-n1ccc(-c2cccc3ccccc23)n1 (stereo not shown) [Example 138, N-[3-Amino-2,3-dioxo-1-({4-[(trifluoromethyl)oxy]phenyl}methyl)propyl]-2-(3-naphthalen-1-yl-1H-pyrazol-1-yl)pyridine-3-carboxamide] | ++ (++ means a Ki(cathepsin S)/Ki(calpain) ratio of ≧100) | ++ (++ means a Ki(cathepsin B)/Ki(calpain) ratio of ≧30) | ++ (++ means a Ki(cathepsin L)/Ki(calpain) ratio of ≧50) | ++ (++ means a Ki(cathepsin K)/Ki(calpain) ratio of ≧30)
